Measured values taken from the supplement of paper PMC4604168 (melanoma cell lines).
Some of the results follow. Most values come without repeats; read them as rough.

test system: COLO829; assay: cell count relative to DMSO control; melanoma cells; higher = more viable cells; conditions: library dose: low library concentration; 72 h
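Note: cell number obtained by counting DAPI-stained nuclei in high-throughput microscope images with image analysis software, screen run in 1,536-well plates.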

Row | Structure (SMILES) | cell count [%]
1 | CNC(=O)c1cc(Oc2ccc(NC(=O)Nc3ccc(Cl)c(C(F)(F)F)c3)cc2)ccn1 [sorafenib] + COC(=O)c1sccc1S(=O)(=O)Nc1ccc(Nc2ccccc2)cc1OC [GSK0660] (first compound 0.4 µM, partner dose 1 µM) | 106
2 | CNC(=O)c1cc(Oc2ccc(NC(=O)Nc3ccc(Cl)c(C(F)(F)F)c3)cc2)ccn1 [sorafenib] + CCN(CC)CCCCNc1ncc2cc(-c3cc(OC)cc(OC)c3)c(NC(=O)NC(C)(C)C)nc2n1 [PD173074] (first compound 0.4 µM, partner dose 0.1 µM) | 106
3 | CN1CCN(c2ccc3nc(-c4c(N)c5c(F)cccc5[nH]c4=O)[nH]c3c2)CC1 [Dovitinib] + O=c1cc(-c2cccc3c2Sc2ccccc2S3)oc(N2CCOCC2)c1 [KU55933] (first compound 0.1 µM, partner dose 1 µM) | 107
4 | C=CCNC1=C2C[C@@H](C)C[C@H](OC)[C@H](O)[C@@H](C)/C=C(\C)[C@H](OC(N)=O)[C@@H](OC)/C=C\C=C(/C)C(=O)NC(=CC1=O)C2=O [Tanespimycin] + O=C1NC(=O)/C(=C/c2ccc(-c3ccc(F)cc3O)o2)S1 [AS252424] (first compound 0.002 µM, partner dose 1 µM) | 94.5
5 | C=CCNC1=C2C[C@@H](C)C[C@H](OC)[C@H](O)[C@@H](C)/C=C(\C)[C@H](OC(N)=O)[C@@H](OC)/C=C\C=C(/C)C(=O)NC(=CC1=O)C2=O [Tanespimycin] + O=C(O)C(=O)Nc1sc2c(c1C(=O)O)CCNC2 [TCS401] (first compound 0.002 µM, partner dose 1.66667 µM) | 112
6 | C=CCNC1=C2C[C@@H](C)C[C@H](OC)[C@H](O)[C@@H](C)/C=C(\C)[C@H](OC(N)=O)[C@@H](OC)/C=C\C=C(/C)C(=O)NC(=CC1=O)C2=O [Tanespimycin] + COc1ccc2c(c1)CCC1C2CCC2(C)C(NCCCCCCN3C(=O)C=CC3=O)CCC12 [U73122] (first compound 0.002 µM, partner dose 0.4 µM) | 92.9
7 | CNC(=O)c1cc(Oc2ccc(NC(=O)Nc3ccc(Cl)c(C(F)(F)F)c3)cc2)ccn1 [sorafenib] + N#Cc1c(O)c2c(-c3ccc(-c4ccccc4O)cc3)csc2[nH]c1=O [A769662] (first compound 0.4 µM, partner dose 2 µM) | 75.7
8 | CS(=O)(=O)CCNCc1ccc(-c2ccc3ncnc(Nc4ccc(OCc5cccc(F)c5)c(Cl)c4)c3c2)o1 [lapatinib] + Oc1cc(-c2nc(-c3ccccc3)[nH]c2-c2ccncc2)ccc1Cl [L779450] (first compound 0.8 µM, partner dose 0.2 µM) | 119
9 | CN1CCN(c2ccc3nc(-c4c(N)c5c(F)cccc5[nH]c4=O)[nH]c3c2)CC1 [Dovitinib] + O=C(O)C(=O)Nc1sc2c(c1C(=O)O)CCNC2 [TCS401] (first compound 0.1 µM, partner dose 1.66667 µM) | 103
10 | C=CCNC1=C2C[C@@H](C)C[C@H](OC)[C@H](O)[C@@H](C)/C=C(\C)[C@H](OC(N)=O)[C@@H](OC)/C=C\C=C(/C)C(=O)NC(=CC1=O)C2=O [Tanespimycin] + COc1ccc(COc2ccc(Cc3cnc(N)nc3N)cc2OC)cc1 [GW2580] (first compound 0.002 µM, partner dose 1 µM) | 135
11 | CNC(=O)c1cc(Oc2ccc(NC(=O)Nc3ccc(Cl)c(C(F)(F)F)c3)cc2)ccn1 [sorafenib] + COc1ccc(-c2ccc3c(N4CCOCC4)nc(N4C[C@@H](C)O[C@@H](C)C4)nc3n2)cc1CO [KU0063794] (first compound 0.4 µM, partner dose 0.02 µM) | 101
12 | CNC(=O)c1cc(Oc2ccc(NC(=O)Nc3ccc(Cl)c(C(F)(F)F)c3)cc2)ccn1 [sorafenib] + COc1ccc2c(c1)CCC1C2CCC2(C)C(NCCCCCCN3C(=O)C=CC3=O)CCC12 [U73122] (first compound 0.4 µM, partner dose 0.4 µM) | 98.1
13 | C[C@@H](Oc1cc(-c2cnn(C3CCNCC3)c2)cnc1N)c1c(Cl)ccc(F)c1Cl [Crizotinib] + O=c1cc(-c2cccc3c2Sc2ccccc2S3)oc(N2CCOCC2)c1 [KU55933] (first compound 0.2 µM, partner dose 1 µM) | 95.5
14 | C[C@@H](Oc1cc(-c2cnn(C3CCNCC3)c2)cnc1N)c1c(Cl)ccc(F)c1Cl [Crizotinib] + COC(=O)c1sccc1S(=O)(=O)Nc1ccc(Nc2ccccc2)cc1OC [GSK0660] (first compound 0.2 µM, partner dose 1 µM) | 99.2
15 | CS(=O)(=O)CCNCc1ccc(-c2ccc3ncnc(Nc4ccc(OCc5cccc(F)c5)c(Cl)c4)c3c2)o1 [lapatinib] + O=C(O)C(=O)Nc1sc2c(c1C(=O)O)CCNC2 [TCS401] (first compound 0.8 µM, partner dose 1.66667 µM) | 93.1
